The campaign covered roughly 310,000 compounds. About 2,200 (0.71%) showed an effect of 50% or more. The effect is printed as a negative number. Some of the results follow.

In the experiment the target is human ether-à-go-go-related gene (hERG) potassium channel (human, UniProt Q12809). Description: primary screen, population patch clamp on CHO cells stably expressing hERG.
human ether-à-go-go-related gene (hERG) potassium channel, sequence (Q12809 whole entry, looked up): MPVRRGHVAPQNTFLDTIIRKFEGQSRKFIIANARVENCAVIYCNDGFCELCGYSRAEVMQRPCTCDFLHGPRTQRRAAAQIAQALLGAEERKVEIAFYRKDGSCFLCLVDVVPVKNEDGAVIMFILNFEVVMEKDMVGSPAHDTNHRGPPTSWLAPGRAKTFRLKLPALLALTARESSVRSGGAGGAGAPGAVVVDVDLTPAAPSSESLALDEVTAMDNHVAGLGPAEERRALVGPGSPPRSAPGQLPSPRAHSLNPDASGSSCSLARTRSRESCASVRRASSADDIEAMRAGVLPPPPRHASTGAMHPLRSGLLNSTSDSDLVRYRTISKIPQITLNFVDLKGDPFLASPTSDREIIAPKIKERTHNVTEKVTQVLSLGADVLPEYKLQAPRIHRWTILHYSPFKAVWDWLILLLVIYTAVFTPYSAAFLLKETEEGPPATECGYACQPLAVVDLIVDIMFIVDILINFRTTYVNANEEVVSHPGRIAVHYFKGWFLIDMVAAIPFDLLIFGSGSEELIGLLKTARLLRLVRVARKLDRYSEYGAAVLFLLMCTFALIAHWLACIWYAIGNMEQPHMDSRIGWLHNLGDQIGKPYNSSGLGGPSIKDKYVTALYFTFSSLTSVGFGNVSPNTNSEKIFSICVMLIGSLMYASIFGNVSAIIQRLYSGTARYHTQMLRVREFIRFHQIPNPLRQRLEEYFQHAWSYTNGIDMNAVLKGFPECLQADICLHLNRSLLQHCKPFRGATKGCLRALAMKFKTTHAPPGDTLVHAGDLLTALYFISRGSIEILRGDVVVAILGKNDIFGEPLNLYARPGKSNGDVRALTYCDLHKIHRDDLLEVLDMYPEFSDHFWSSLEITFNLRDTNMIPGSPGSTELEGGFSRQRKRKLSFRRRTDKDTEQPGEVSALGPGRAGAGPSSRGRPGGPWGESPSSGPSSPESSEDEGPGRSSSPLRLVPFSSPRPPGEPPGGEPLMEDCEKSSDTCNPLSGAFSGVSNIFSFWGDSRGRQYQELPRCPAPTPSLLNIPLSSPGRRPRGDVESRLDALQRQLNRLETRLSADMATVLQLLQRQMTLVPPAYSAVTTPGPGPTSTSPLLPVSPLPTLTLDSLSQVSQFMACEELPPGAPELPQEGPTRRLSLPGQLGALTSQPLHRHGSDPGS
Regarding `COc1ccc(C(CNC(=O)C(=O)Nc2ccc3c(c2)OCO3)N2CCN(C)CC2)cc1` (stereo not shown), the “hERG current change (%, negative = inhibition) at 1uM” value is listed as -4.91%.

`CCOc1cc(NC(=S)Nc2cccc(OC)c2)c(OCC)cc1NC(=O)c1ccc(C)cc1`: the “hERG current change (%, negative = inhibition) at 1uM” value is listed as 10.3%.

Take `O=C(O)/C=C\c1cccc(-n2nnnc2SCc2ccccc2F)c1`: the “hERG current change (%, negative = inhibition) at 1uM” value is listed as 16.8%.

For `O=C(Nc1ccc(Br)cc1)c1ccccc1CC[N+](=O)[O-]`, the “hERG current change (%, negative = inhibition) at 1uM” value was 7.7%.

Regarding `O=C(CCc1nnc2n(Cc3ccc(Cl)cc3)c(=O)c3ccccc3n12)N1CCN(c2ccccn2)CC1`, the “hERG current change (%, negative = inhibition) at 1uM” value is 5.12%.

In the case of `CCN(CC)S(=O)(=O)c1cccc(C(=O)NCc2ccccc2)c1`, the “hERG current change (%, negative = inhibition) at 1uM” value is on record as -0.29%.

In the case of `CC(=O)NCCCNc1ccc([N+](=O)[O-])cc1`, the “hERG current change (%, negative = inhibition) at 1uM” value was -1.63%.

With `CN1CC(=O)N(CC(=O)Nc2ccc(Cl)c(C(F)(F)F)c2)C1=O`, the “hERG current change (%, negative = inhibition) at 1uM” value is recorded as 9.66%.

As for `O=C(NCc1ccc2c(c1)OCO2)c1c(Cl)cccc1Cl`, the “hERG current change (%, negative = inhibition) at 1uM” value was 11.8%.

In the case of `O=C(Nc1ccc(N2C(=O)C3CCCCC3C2=O)cc1Cl)c1cccs1` (stereo not shown), the “hERG current change (%, negative = inhibition) at 1uM” value came out at 19.3%.

Turning to `COC(=O)/C=c1/s/c(=C(/C#N)C(=O)NCc2ccccc2)n(-c2ccccc2)c1=O`, the “hERG current change (%, negative = inhibition) at 1uM” value turned out to be 6.3%.

Regarding `O=C(COC(=O)/C=C/c1ccco1)Nc1ccc(F)cc1Cl`, the “hERG current change (%, negative = inhibition) at 1uM” value came out at 16.2%.

For `COc1ccc2[n-]c(S(=O)Cc3ncc(C)c(OC)c3C)nc2c1.COc1ccc2[n-]c(S(=O)Cc3ncc(C)c(OC)c3C)nc2c1.[Mg+2]` (stereo not shown) [49665950], the “hERG current change (%, negative = inhibition) at 1uM” value came to 16.3%.

`Cc1nc2nc(SCC(=O)Nc3cccc(F)c3)[nH]c2cc1Br`: the “hERG current change (%, negative = inhibition) at 1uM” value came to 20.4%.

Regarding `COCCNC(=O)CSc1cc(=O)n(C)c2cc(Cl)ccc12`, the “hERG current change (%, negative = inhibition) at 1uM” value worked out at 9.17%.

Turning to `COc1cc(OC)cc(-n2nc(C(=O)N3CCC4(CC3)OCCO4)c3ccccc3c2=O)c1`, the “hERG current change (%, negative = inhibition) at 1uM” value is reported as 8.66%.

For `COc1ccc(Br)cc1C1N2CC3(C)CN1CC(C)(C2)C3=O` (stereo not shown), the “hERG current change (%, negative = inhibition) at 1uM” value is given as 8.45%.

With `CCc1nnc(NC(=O)c2ccc(S(=O)(=O)N3CCCCCC3)cc2)s1`, the “hERG current change (%, negative = inhibition) at 1uM” value amounted to 9.63%.

Regarding `O=C(CN1CCN(S(=O)(=O)c2ccc3ccccc3c2)CC1)Nc1ccc2c(c1)CCC2`, the “hERG current change (%, negative = inhibition) at 1uM” value is 16.5%.

Turning to `C=CCN(c1ccc(F)cc1)S(=O)(=O)c1cc(C(=O)NC2CCC(O)CC2)ccc1Cl` (stereo not shown), the “hERG current change (%, negative = inhibition) at 1uM” value is -1.9%.

Take `Cc1ccc(-c2cc(C(=O)[O-])c3cc(Br)ccc3n2)s1.[K+]`: the “hERG current change (%, negative = inhibition) at 1uM” value is listed as 13.3%.

Turning to `COc1ccc(CCN(C)Cc2ccc(F)cc2F)cc1OC`, the “hERG current change (%, negative = inhibition) at 1uM” value is listed as -2.08%.

As to `CCOC(=O)c1ccc(NC(=S)N2CCCC2c2ccc(OC)c(OC)c2)cc1` (stereo not shown), the “hERG current change (%, negative = inhibition) at 1uM” value was determined as 10.6%.

For the molecule `CCN1CCN(CCCNC(=O)C(=O)c2c(C)[nH]c3ccccc23)CC1`, the “hERG current change (%, negative = inhibition) at 1uM” value is recorded as 6.58%.

As to `Cc1cc2cc(CNC(=O)Nc3ccccc3)ccc2[nH]1`, the “hERG current change (%, negative = inhibition) at 1uM” value was 11.4%.

Regarding `Cc1[nH]n(-c2ccc(F)cc2)c(=O)c1C=Nc1ccc(S(=O)(=O)N(C)C)cc1`, the “hERG current change (%, negative = inhibition) at 1uM” value is listed as 10.5%.

With `Nn1c(C2COc3ccccc3O2)n[nH]c1=S` (stereo not shown), the “hERG current change (%, negative = inhibition) at 1uM” value worked out at 9.56%.

In the case of `Cc1cc(C)n(C2=NS(=O)(=O)c3ccccc32)n1`, the “hERG current change (%, negative = inhibition) at 1uM” value came out at 11.8%.

As for `COC(=O)c1c(NC(=O)c2cnccn2)sc2c1CCC2`, the “hERG current change (%, negative = inhibition) at 1uM” value is on record as 24.1%.

As for `COCCCNC(=O)c1cn(-c2cccc(OC)c2)c(=O)c2ccccc12`, the “hERG current change (%, negative = inhibition) at 1uM” value stood at 17.4%.

`O=C(Nc1ccc(-c2noc(COc3ccccc3Cl)n2)cc1)c1ccco1`: the “hERG current change (%, negative = inhibition) at 1uM” value was 5.38%.

In the case of `Cc1cn(S(=O)(=O)c2ccc(Br)c3ccccc23)cn1`, the “hERG current change (%, negative = inhibition) at 1uM” value stood at 9.99%.

Take `CC(=O)Nc1ccc(NC(=O)c2ccc3c(c2)C(=O)N(c2ccccc2C)C3=O)cc1`: the “hERG current change (%, negative = inhibition) at 1uM” value was 7.63%.

As for `O=C1C(Cc2ccccc2)SC(=Nc2ccccc2)N1c1ccccc1` (stereo not shown), the “hERG current change (%, negative = inhibition) at 1uM” value worked out at 16.2%.

Consider `CC(=O)O[C@@H]1C[C@H]2C(C)(C)C(=O)C=C[C@]2(C)[C@H]2CC[C@@]3(C)[C@H](c4ccoc4)OC(=O)[C@H]4O[C@]43[C@@]21C`, for which the “hERG current change (%, negative = inhibition) at 1uM” value turned out to be 1.89%.

Turning to `CC(=O)Nc1ccc(NS(=O)(=O)c2ccc(OC(C)C(=O)N3CCOCC3)cc2)cc1` (stereo not shown), the “hERG current change (%, negative = inhibition) at 1uM” value is given as 0.684%.

For `COc1cccc(N2[C@@H](CC(C)=O)c3cc(C(F)(F)F)ccc3S2(=O)=O)c1`, the “hERG current change (%, negative = inhibition) at 1uM” value was 11.6%.

Take `Cc1ccccc1-c1cc(C(=O)n2cccn2)c2cc(Cl)ccc2n1`: the “hERG current change (%, negative = inhibition) at 1uM” value was 10.5%.

As to `Cc1ccc(CNCCCSc2ncccn2)cc1`, the “hERG current change (%, negative = inhibition) at 1uM” value is recorded as -0.37%.

Consider `Cc1cc(-c2ccc(/C=N/n3cnnc3)o2)c(C)c([N+](=O)[O-])c1`, for which the “hERG current change (%, negative = inhibition) at 1uM” value worked out at 12%.

`Cc1c(Cl)cccc1NC(=O)CCCn1cnc([N+](=O)[O-])n1`: the “hERG current change (%, negative = inhibition) at 1uM” value stood at 9.67%.

In the case of `CCN(CC)C(=O)COc1cc(C)cc2oc(=O)cc(-c3ccccc3)c12`, the “hERG current change (%, negative = inhibition) at 1uM” value is -8.08%.

In the case of `CS(=O)(=O)N(CC(=O)NCC1CCCO1)c1cccc(Cl)c1` (stereo not shown), the “hERG current change (%, negative = inhibition) at 1uM” value was found to be 16.2%.

These data come from PMC4336329 (PLoS ONE, 2015).
